Tests used:
[1] = biological target: VHO1; assay: BLI
[2] = biological target: VHO2; assay: BLI
Sequence of VHO2 (Q86Z14 1-992): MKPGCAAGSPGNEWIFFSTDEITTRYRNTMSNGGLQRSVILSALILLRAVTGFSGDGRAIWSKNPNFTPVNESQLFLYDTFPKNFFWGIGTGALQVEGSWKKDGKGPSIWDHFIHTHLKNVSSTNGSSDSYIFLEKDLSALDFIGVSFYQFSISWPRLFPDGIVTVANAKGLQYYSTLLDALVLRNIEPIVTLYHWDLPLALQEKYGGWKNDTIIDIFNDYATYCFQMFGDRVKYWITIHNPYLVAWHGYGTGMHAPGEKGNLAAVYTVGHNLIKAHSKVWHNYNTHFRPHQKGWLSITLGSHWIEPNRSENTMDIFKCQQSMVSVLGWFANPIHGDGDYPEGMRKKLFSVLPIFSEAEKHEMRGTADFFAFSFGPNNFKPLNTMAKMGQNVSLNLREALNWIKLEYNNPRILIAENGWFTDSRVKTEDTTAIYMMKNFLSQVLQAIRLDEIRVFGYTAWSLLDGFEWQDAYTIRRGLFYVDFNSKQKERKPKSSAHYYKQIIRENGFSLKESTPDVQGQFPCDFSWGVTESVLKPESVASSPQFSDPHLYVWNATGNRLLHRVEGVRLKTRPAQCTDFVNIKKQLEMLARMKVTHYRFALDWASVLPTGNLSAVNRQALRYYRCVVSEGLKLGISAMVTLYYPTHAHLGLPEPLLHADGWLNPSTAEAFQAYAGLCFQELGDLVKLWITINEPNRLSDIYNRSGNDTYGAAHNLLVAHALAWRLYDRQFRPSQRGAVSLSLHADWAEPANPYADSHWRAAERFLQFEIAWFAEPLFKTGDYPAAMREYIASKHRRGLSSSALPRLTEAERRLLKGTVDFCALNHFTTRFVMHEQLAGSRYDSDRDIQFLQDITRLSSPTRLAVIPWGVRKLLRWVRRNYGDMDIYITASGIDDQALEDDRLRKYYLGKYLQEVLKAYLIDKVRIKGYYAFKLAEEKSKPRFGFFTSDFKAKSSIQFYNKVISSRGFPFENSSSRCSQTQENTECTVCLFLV

Sequence of VHO1 (Q86Z14 1-992): as above

Kd [1]: 0.9 nM | Kd [2]: 1.34 nM
B1: human β-Klotho extracellular domain (aa 1–992) His6 (receptor)
chain: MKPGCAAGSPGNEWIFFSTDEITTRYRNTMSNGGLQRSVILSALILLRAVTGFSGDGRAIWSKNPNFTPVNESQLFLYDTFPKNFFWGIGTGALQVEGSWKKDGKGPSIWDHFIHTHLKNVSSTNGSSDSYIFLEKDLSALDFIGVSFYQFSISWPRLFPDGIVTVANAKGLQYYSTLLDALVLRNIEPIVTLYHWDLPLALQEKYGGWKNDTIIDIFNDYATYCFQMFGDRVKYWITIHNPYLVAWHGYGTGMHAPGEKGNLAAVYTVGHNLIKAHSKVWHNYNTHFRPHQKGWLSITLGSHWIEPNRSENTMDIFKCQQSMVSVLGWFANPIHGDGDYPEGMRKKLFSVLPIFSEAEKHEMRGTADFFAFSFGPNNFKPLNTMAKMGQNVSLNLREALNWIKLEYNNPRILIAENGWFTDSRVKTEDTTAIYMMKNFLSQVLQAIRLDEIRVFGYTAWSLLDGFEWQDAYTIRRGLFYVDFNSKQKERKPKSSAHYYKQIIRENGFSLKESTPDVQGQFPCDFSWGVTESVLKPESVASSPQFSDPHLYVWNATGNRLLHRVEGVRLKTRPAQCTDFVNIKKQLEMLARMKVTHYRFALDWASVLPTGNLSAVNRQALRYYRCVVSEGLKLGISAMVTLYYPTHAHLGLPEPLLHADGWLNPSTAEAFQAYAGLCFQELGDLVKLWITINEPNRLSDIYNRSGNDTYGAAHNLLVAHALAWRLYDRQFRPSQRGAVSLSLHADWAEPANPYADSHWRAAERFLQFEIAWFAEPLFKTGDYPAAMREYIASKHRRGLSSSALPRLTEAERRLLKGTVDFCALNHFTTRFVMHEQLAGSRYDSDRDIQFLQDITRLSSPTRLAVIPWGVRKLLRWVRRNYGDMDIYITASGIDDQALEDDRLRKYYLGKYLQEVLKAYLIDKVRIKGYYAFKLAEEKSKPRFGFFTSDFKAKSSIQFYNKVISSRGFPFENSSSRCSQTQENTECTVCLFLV
modifications: biotinylated with EZ-Link Sulfo-NHS-LC-Biotin

Source: PMC5912448 (2018)
